# According to PubChem BioAssay AID651820 (National Center for Advancing Translational Sciences (NCATS), 2012):
# In all, about 340,000 compounds went through this assay and about 12,000 (3.5%) were called active. Inconclusive means that the source gave no clear call. Such entries were picked first, then a sample of the others. Calls come from the whole dose curve; as a rule, active = well fitted inhibition curve with a large enough effect; inconclusive = small, poorly fitted or top-dose-only effect, or another doubt; inactive = no such curve, though single readings can be large or run the other way. Potencies of inconclusive entries are left out as doubtful fits.
# Test: qHTS Assay for Inhibitors of Hepatitis C Virus (HCV)
# Details: Huh7.5.1 HCVcc-Cre (HCVcc is cell-culture hepatitis C virus) infection, luciferase reporter, 44 h; activity change, negative = inhibition: at 41.8 µM (top of the series) unless noted
# Outline: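 Antiviral activity was scored by luciferase reporter output from cells infected with HCVcc-Cre (~0.5 moi) in presence of compound, 44 h infection period, cells seeded 1,000/well 4 h prior.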
# % is set by controls: 0 for no effect and ±100 for the full control effect; potency is the fitted concentration of half-maximal effect; tags give direction and shape of the fitted curve.
SMILES,Potency,"activity change, negative = inhibition"
CCC(C)[C@H](NS(=O)(=O)c1ccc(C)cc1)C(=O)N1CCC(C(=O)N[C@@H](Cc2ccccc2)C(=O)O)CC1 (some centres not stated),inactive,
CC1CCN(C(=O)CNC(=O)CNC(=O)Cc2ccccc2)CC1,inactive,
O=C(Nc1ccc(F)c(Cl)c1)C1CCCCC1,"inconclusive [inhibitor, single point]",
Cc1ccccc1C(=O)N1CCN(S(=O)(=O)c2ccccc2)CC1,inactive,
COc1cc(NS(=O)(=O)c2ccc(NC(=S)NC(=O)c3ccc(F)c(F)c3)cc2)nc(OC)n1,inactive,
Cc1cccc(NS(=O)(=O)Cc2ccccc2)n1,inactive,
CCCn1nc(C(=O)N(C)CC(=O)Nc2ccc(OCC)c(OCC)c2)c2ccccc2c1=O,"inconclusive [inhibitor, single point]",
CNCc1ccccc1Sc1cc(O)ccc1O,"inconclusive [inhibitor, single point]",
Cc1cccc2c(C(=O)N3CCCCC3)cc(-c3ccccc3)nc12,"inconclusive [inhibitor, partial curve]",
CN(c1ccccc1)c1nc(N)c([N+](=O)[O-])c(NCc2ccco2)n1,"inconclusive [inhibitor, partial curve]",
O=C(Nc1cccc(S(=O)(=O)N2CCCCC2)c1)c1ccc2ncsc2c1,active: 7.94 µM,
CCN(CC)CCCCNc1ncc2cc(-c3cc(OC)cc(OC)c3)c(NC(=O)NC(C)(C)C)nc2n1,"inconclusive [inhibitor, single point]",
CC1CCCCN1C(=S)NC(=O)c1ccccc1 (configuration not stated),inactive,
CCCCCCNCC1OCc2ccccc2CO1,"inconclusive [inhibitor, partial curve]",
O=C(Nc1cccc(Cl)c1Cl)C1CC(=O)N(c2ccc(Br)cc2)C1 (configuration not stated),"inconclusive [inhibitor, single point]",
CCc1ccc2c(CN(C)Cc3ccccc3OC)cc(=O)oc2c1,inactive,
COC(=O)c1ccc(NC(=O)c2ccc(CN3CCOCC3)cc2)cc1,"inconclusive [inhibitor, single point]",
O=C(NCC(c1cccs1)N1CCOCC1)c1cc(S(=O)(=O)N2CCOCC2)ccc1Cl (configuration not stated),inactive,
O=C(CSc1nccc(-c2cccs2)n1)Nc1cccc(Cl)c1,,inconclusive: -33.8% [inhibitor]
COc1ccc(CCNCc2cc3ccc(C)cc3[nH]c2=O)cc1OC,inactive,
O=C(NCCCN1CCOCC1)c1ccc2nc(Cc3cccc(Cl)c3)oc2c1,"inconclusive [inhibitor, single point]",
CC(OC(=O)CCCc1nc2ccccc2s1)C(=O)NC(N)=O (configuration not stated),"inconclusive [inhibitor, single point]",
CC(C)n1cnc2c(Nc3ccc(F)c(Cl)c3)nc(NCCO)nc21,"inconclusive [inhibitor, full curve, poor fit]",
COC(=O)c1cc(Br)ccc1NC(=O)CSCc1c(C)noc1C,"inconclusive [inhibitor, single point]",

SMILES,Potency,"activity change, negative = inhibition"
CN(C)CCCN(C(=O)c1cc2cc([N+](=O)[O-])ccc2s1)c1nc2cc3c(cc2s1)OCCO3,"inconclusive [inhibitor, partial curve]",
CC1CN(C(=O)c2ccc(-c3cccc(C(F)(F)F)c3)o2)CC(C)O1 (configuration not stated),"inconclusive [inhibitor, single point]",
CCn1c(-c2ccccc2)c[nH]c1=S,"inconclusive [inhibitor, single point]",
COc1ccc(/C(N)=N/OC(=O)Cc2ccccc2[N+](=O)[O-])cc1,"inconclusive [inhibitor, single point]",
C/C(Cl)=C/Cc1c(C)[nH]c2c(ccc3ccccc32)c1=O,"inconclusive [inhibitor, partial curve]",
Cc1n[nH]c(C)c1CCCCOc1ccccc1F,"inconclusive [inhibitor, single point]",
CN(C)CCNc1ccc(CO)c2sc3ccc(O)cc3c(=O)c12,"inconclusive [inhibitor, full curve]",
N#Cc1c(Cl)nsc1NC(=O)c1ccccc1,active: 14.1 µM,
CCn1c(=O)c(C(=O)NCCCc2ccccc2)c(O)c2ccccc21,"inconclusive [inhibitor, partial curve]",
COc1ccc(-c2oc(NC(=O)c3ccc(C)cc3)c(C#N)c2-c2ccc(OC)cc2)cc1,inactive,
O=C(NC[C@@H]1CCCO1)c1cccc2c1C(=O)c1ccc(Cl)cc1S2(=O)=O,"inconclusive [inhibitor, full curve]",
Cc1ccc2c(c1)cc1c(=O)n(CC(=O)NCCCc3ccccc3)nc(C)n12,inactive,
O=C1C=C(NCc2ccc(Cl)c(Cl)c2)CC1,inactive,
COc1ccccc1NC(=O)CCCc1nnc2n(C)c(=O)c3sccc3n12,inactive,
COc1ccc(N(C)S(=O)(=O)c2c(C)noc2C)c(OC)c1,"inconclusive [inhibitor, single point]",
Oc1ccc(-c2csc(NCc3ccco3)n2)cc1,"inconclusive [inhibitor, partial curve]",
CCCCn1c(SCC(=O)Nc2nnc(CC)s2)nc2ccccc2c1=O,inactive,
COc1ccccc1/C=N/NC(=O)C1=NNC(c2ccccc2)(c2ccccc2)C1,"inconclusive [inhibitor, single point]",
CCCCCCCNC(=O)c1ccc(N2CCC3(CC2)OCCO3)c([N+](=O)[O-])c1,"inconclusive [inhibitor, single point]",
CCCCn1c(SCC(=O)Nc2cc(NC(=O)c3ccco3)ccc2C)nc2ccccc2c1=O,"inconclusive [inhibitor, single point]",
c1ccc(CCNc2ncnc3ccccc23)cc1,active: 1.12 µM,
COc1ccc(C(C)=O)cc1COC(=O)c1cnc(Cl)c(Cl)c1,active: 11.2 µM,
CCCCn1c(-c2ccc(Br)cc2F)nc2c1c(=O)[nH]c(=O)n2CC(C)C,"inconclusive [inhibitor, partial curve]",
COc1ccc(OC)c(Nc2nc(C3CC3)nc3c2nnn3Cc2ccccc2)c1,"inconclusive [inhibitor, partial curve]",

SMILES,Potency,"activity change, negative = inhibition"
CCOc1ccc2ccccc2c1/C=N/NC(=O)c1ccncc1,"inconclusive [inhibitor, single point]",
COc1ccc(CCNC(=O)c2cc(-c3ccccn3)nc3ccccc23)cc1,"inconclusive [inhibitor, partial curve]",
O=C(NC1=NCCS1)c1cc(-c2cccc(Br)c2)nc2ccccc12,inactive,
COc1ccccc1CNC(=O)Cc1csc(NC(=O)Nc2ccccc2OC)n1,"inconclusive [inhibitor, full curve]",
COc1ccc(-n2nnnc2CNC(=O)C2CC(=O)N(c3ccc(Cl)cc3)C2)cc1 (configuration not stated),,inactive: -1.62% [at 8.37 µM]
C#CCN1C=CC(=O)[C@@H](OC(=O)NCCC)[C@H]1c1ccccc1Br,,inactive: 9.55% [at 8.37 µM]
COCc1cc(C)nc2sc(C(=O)Nc3cccc(OC)c3)c(N)c12,"inconclusive [inhibitor, full curve, poor fit]",
CN(C)c1nc(NN)nc(Nc2ccc(F)cc2)n1,"inconclusive [inhibitor, partial curve]",
Cc1c(C(=O)N2CCN(Cc3ccccc3)CC2)sc2ncnc(N3CCOCC3)c12,"inconclusive [inhibitor, partial curve]",
COC(=O)C1=C(C)NC(=O)/C1=C\c1cc(C)n(-c2cc(C)cc(C)c2)c1C,"inconclusive [inhibitor, single point]",
Cc1ccc2nc(-c3ccc(NC(=S)NCC(C)(C)CN(C)C)cc3)sc2c1,active: 2.24 µM,
CN(C)c1ccc(/C=N/NC(=O)Cn2nnc3ccccc32)cc1,inactive,
c1ccc(-c2cc(-c3nn4c(-c5ccco5)nnc4s3)c3ccccc3n2)cc1,"inconclusive [inhibitor, single point]",
COc1ccccc1C(=O)C1CCCN(C(=O)c2cn3cc(Cl)ccc3n2)C1 (configuration not stated),inactive,
COc1ccc(CNCC(O)(c2ccccc2)c2ccc(F)cc2)cc1OC (configuration not stated),active: 10 µM,
C/C=C/c1ccc(OCCCCOc2c(OC)cccc2OC)c(OC)c1,"inconclusive [inhibitor, single point]",
O=[N+]([O-])c1cccc(/C=C/c2nc3ccc([N+](=O)[O-])cc3[nH]2)c1,"inconclusive [inhibitor, single point]",
Nc1c(N(Cc2ccco2)C(=O)c2ccc(Br)cc2)c(=O)[nH]c(=O)n1Cc1ccccc1,"inconclusive [inhibitor, single point]",
COc1ccc(NC(=O)c2ccc(OC)c(S(=O)(=O)N3CCCCC3C)c2)cn1 (configuration not stated),"inconclusive [inhibitor, single point]",
CSCCCN1CCC(n2nccc2NC(=O)CCCc2ccccc2)CC1,"inconclusive [inhibitor, single point]",
CC(C)N(C(=O)NC(=O)Nc1ccccn1)S(C)(=O)=O,inactive,
CC(C)(C)C1CCc2nc(NC(=O)Cc3cn4ccsc4n3)sc2C1 (configuration not stated),active: 22.4 µM,
N=c1n(Cc2ccccc2)c2ccccc2n1CC(O)COc1ccc(Cl)cc1Cl (configuration not stated),active: 11.2 µM,
O=C(Nc1ccc(C(=O)N2CCOCC2)cc1)c1cnn2c(C(F)F)cc(-c3ccccc3)nc12,"inconclusive [inhibitor, single point]",
